The other results are listed elsewhere or left out. Sequences were assembled here from the parent chain. Inactive controls read about 0.05.
B1: TEV protease; numbered along this chain (parent)
chain: MGESLFKGPRDYNPISSSICHLTNESDGHTTSLYGIGFGPFIITNKHLFRRNNGTLVVQSLHGVFKVKDTTTLQQHLVDGRDMIIIRMPKDFPPFPQKLKFREPQREERICLVTTNFQTKSMSSMVSDTSCTFPSGDGIFWKHWIQTKDGQCGSPLVSTRDGFIVGIHSASNFTNTNNYFTSVPKNFMELLTNQEAQQWVSGWRLNADSVLWGGHKVFMVKPEEPFQPVKEATQL

Variants of: B1
Assay: raw area under fraction-flipped curve 0-4 h after induction (AUC4h, not background-subtracted), DNA-recorder readout of cleavage of the substrate (dimensionless); higher = more cleavage of the substrate by the protease variant
Settings: temperature: 34 °C; time window: 0-4 h after rhamnose induction
Experimental: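 In vivo DNA recorder in E. coli TOP10(DE3) ΔrhaA at 34 °C. Each TEVp single-site mutant (parent TEVp 0) is paired with a single-site variant of the 7-mer TEVs (canonical ENLYFQ|S). The substrate sits between flexible linkers in a Bxb1-sfGFP-TEVs-SsrA fusion, so cleavage stabilises Bxb1 and speeds flipping of a recombination array, read by NGS. The value is the raw area under the fraction-flipped curve over 0-4 h after rhamnose induction (AUC4h), with ≥20 reads per time point. It is not background-subtracted; inactive controls average about 0.047.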
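Note: Bxb1 expression induced with 0.2% (w/v) L-rhamnose at OD600 near 0.5, cultures sampled hourly, flipped fraction per protease–substrate barcode pair counted by paired-end Illumina sequencing.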

Row | Variant | area with substrate EALYFQS | area with substrate EDLYFQS | area with substrate EILYFQS | area with substrate EKLYFQS | area with substrate ELLYFQS | area with substrate EQLYFQS | area with substrate ESLYFQS | area with substrate EVLYFQS | area with substrate ERLYFQS | area with substrate EWLYFQS
1 | MGESLFKGPRDYNPISSSICHLTNESDGHTTSLYGIGFGPFIITNKHLFRRNNGTLVVQSLHGVFKVKDTTTLQQHLVDGRDMIIIRMPKDFPPFPQKLKFREPQREERICLVTTNFQTKSMSSMVSDTSCTFPSGSGIFWKHWIQTKDGQCGSPLVSTRDGFIVGIHSASNFTNTNNYFTSVPKNFMELLTNQEAQQWVSGWRLNADSVLWGGHKVFMVKPEEPFQPVKEATQL [D137S] | 0.173 | 0.231 | 0.0943 | 0.102 | 0.0922 | 0.108 | 0.108 | 0.103 | – | –
2 | MGESLFKGPRDYNPISSSICHLTNESDGHTTSLYGIGFGPFIITNKHLFRRNNGTLVVQSLHGVFKVKDTTTLQQHLVDGRDMIIIRMPKDFPPFPQKLKFREPQREERICLVTTNFQTKSMSSMVSDTSCTFPSGDGIFWKHWIQTKDGQCGSPLVSTRDGFIVGIHSAINFTNTNNYFTSVPKNFMELLTNQEAQQWVSGWRLNADSVLWGGHKVFMVKPEEPFQPVKEATQL [S171I] | 0.0676 | – | – | – | – | – | – | – | 0.0538 | 0.0648
3 | MGESLFKGPRDYNPISSSICHLTNESDGHTTSLYGIGFGPFIITNKHLFRRNNGTLVVQSLHGVFKVKDTTTLQQHLVDGRDMIIIRMPKDFPPFPQKLKFREPQREERICLVTTNFQTKSMSSMVSDTSCTFPSGDGIFWKHWIQTKDGQCGSPLVSTRDGFIVGIHSASNFTNTGNYFTSVPKNFMELLTNQEAQQWVSGWRLNADSVLWGGHKVFMVKPEEPFQPVKEATQL [N177G] | 0.0747 | – | 0.0611 | 0.0392 | 0.055 | 0.0867 | – | 0.0683 | 0.0644 | 0.0709
4 | MGESLFKGPRDYNPISSSICHLTNESDGHTTSLYGIGFGPFIITNKHLFRRNNGTLVVQSLHGVFKVKDTTTLQQHLVDGRDMIIIRMPKDFPPFPQKLKFREPQREERICLVTTNFQTKSMSSMVSDTSCTFPSGDGIFWKHWIQTKDGQCGVPLVSTRDGFIVGIHSASNFTNTNNYFTSVPKNFMELLTNQEAQQWVSGWRLNADSVLWGGHKVFMVKPEEPFQPVKEATQL [S154V] | 0.124 | – | 0.0853 | – | – | 0.111 | – | – | 0.0682 | –
5 | MGESLFKGPRDYNPISSSICHLTNESDGHTTSLYGIGFGPFIITNKHLFRRNNGTLVVQSLHGVFKVKDTTTLQQHLVDGRDMIIIRMPKDFPPFPQKLKFREPQREERICLVTTNFQTKSMSSMVSDTSCTFPSGDGIFWKHWIQTKDGQCGSPLVSTRDGFIVGIHSSSNFTNTNNYFTSVPKNFMELLTNQEAQQWVSGWRLNADSVLWGGHKVFMVKPEEPFQPVKEATQL [A170S] | 0.0691 | 0.076 | 0.0569 | 0.0632 | – | – | 0.064 | – | – | 0.0676
6 | MGESLFKGPRDYNPISSSICHLTNESDGHTTSLYGIGFGPFIITNKHLFRRNNGTLVVQSLHGVFKVKDTTTLQQHLVDGRDMIIIRMPKDFPPFPQKLKFREPQREERICLVTTNFQTKSMSSMVSDTSCTFPSGDGIFWKHWIQTKIGQCGSPLVSTRDGFIVGIHSASNFTNTNNYFTSVPKNFMELLTNQEAQQWVSGWRLNADSVLWGGHKVFMVKPEEPFQPVKEATQL [D149I] | 0.0706 | – | – | – | – | 0.0948 | 0.0763 | – | – | –
7 | MGESLFKGPRDYNPISSSICHLTNESDGHTTSLYGIGFGPFIITNKHLFRRNNGTLVVQSLHGVFKVKDTTTLQQHLVDGRDMIIIRMPKDFPPFPQKLKFREPQREERICLVTTNFQTKSMSSMVSDTSCTFPSGDGIFWKHWIQTKDGQCGSPLVSTRDGKIVGIHSASNFTNTNNYFTSVPKNFMELLTNQEAQQWVSGWRLNADSVLWGGHKVFMVKPEEPFQPVKEATQL [F163K] | 0.102 | – | 0.103 | 0.103 | 0.0912 | 0.111 | – | – | – | –
8 | MGESLFKGPRDYNPISSSICHLTNESDGHTTSLYGIGFGPFIITNKHLFRRNNGTLVVQSLHGVFKVKDTTTLQQHLVDGRDMIIIRMPKDFPPFPQKLKFREPQREERICLVTTNFQTKSMSSMVSDTSCTFPSGDGIFWKHWIQTKDGQCGSPLVSTRDGDIVGIHSASNFTNTNNYFTSVPKNFMELLTNQEAQQWVSGWRLNADSVLWGGHKVFMVKPEEPFQPVKEATQL [F163D] | 0.111 | – | 0.0879 | – | – | – | – | 0.0463 | – | –
9 | MGESLFKGPRDYNPISSSICHLTNESDGHTTSLYGIGFGPFIITNKHLFRRNNGTLVVQSLHGVFKVKDTTTLQQHLVDGRDMIIIRMPKDFPPFPQKLKFREPQREERICLVTTNFQTKSMSSMVSDTSCTFPSGDGIFWKHWIQTKDGQCGSPYVSTRDGFIVGIHSASNFTNTNNYFTSVPKNFMELLTNQEAQQWVSGWRLNADSVLWGGHKVFMVKPEEPFQPVKEATQL [L156Y] | 0.0633 | – | 0.0553 | 0.0624 | 0.055 | 0.0634 | 0.0701 | – | 0.0554 | –
10 | MGESLFKGPRDYNPISSSICHLTNESDGHTTSLYGIGFGPFIITNKHLFRRNNGTLVVQSLHGVFKVKDTTTLQQHLVDGRDMIIIRMPKDFPPFPQKLKFREPQREERICLVTTNFQTKSMSSMVSDTSCTFPSGDGIFWKHWIQTKDGQCGSPLVSTRGGFIVGIHSASNFTNTNNYFTSVPKNFMELLTNQEAQQWVSGWRLNADSVLWGGHKVFMVKPEEPFQPVKEATQL [D161G] | 0.0919 | 0.0927 | 0.062 | – | 0.069 | 0.0974 | 0.0895 | 0.0845 | – | –

Same assay, conditions: temperature: 34 °C; time window: 0-4 h after rhamnose induction

Row | Variant | area with substrate EFLYFQS | area with substrate EGLYFQS | area with substrate EMLYFQS | area with substrate EPLYFQS | area with substrate ETLYFQS | area with substrate EYLYFQS | area with substrate EELYFQS | area with substrate EHLYFQS
11 | MGESLFKGPRDYNPISSSICHLTNESDGHTTSLYGIGFGPFIITNKHLFRRNNGTLVVQSLHGVFKVKDTTTLQQHLVDGRDMIIIRMPKDFPPFPQKLKFREPQREERICLVTTNFQTKSMSSMVSDTSCTFPSGDGIFWKHWIQTKDGQCGSPLVSTRDGFIVGIHSASNFTNTGNYFTSVPKNFMELLTNQEAQQWVSGWRLNADSVLWGGHKVFMVKPEEPFQPVKEATQL [N177G] | 0.0702 | 0.0739 | 0.0682 | 0.0951 | – | – | – | –
12 | MGESLFKGPRDYNPISSSICHLTNESDGHTTSLYGIGFGPFIITNKHLFRRNNGTLVVQSLHGVFKVKDTTTLQQHLVDGRDMIIIRMPKDFPPFPQKLKFREPQREERICLVTTNFQTKSMSSMVSDTSCTFPSGDGIFWKHWIQTKDGQCGVPLVSTRDGFIVGIHSASNFTNTNNYFTSVPKNFMELLTNQEAQQWVSGWRLNADSVLWGGHKVFMVKPEEPFQPVKEATQL [S154V] | – | 0.0687 | – | – | – | – | – | –
13 | MGESLFKGPRDYNPISSSICHLTNESDGHTTSLYGIGFGPFIITNKHLFRRNNGTLVVQSLHGVFKVKDTTTLQQHLVDGRDMIIIRMPKDFPPFPQKLKFREPQREERICLVTTNFQTKSMSSMVSDTSCTFPSGDGIFWKHWIQTKDGQCGSPLVSTRDGFIVGIHSSSNFTNTNNYFTSVPKNFMELLTNQEAQQWVSGWRLNADSVLWGGHKVFMVKPEEPFQPVKEATQL [A170S] | – | – | 0.0564 | – | 0.0897 | – | – | –
14 | MGESLFKGPRDYNPISSSICHLTNESDGHTTSLYGIGFGPFIITNKHLFRRNNGTLVVQSLHGVFKVKDTTTLQQHLVDGRDMIIIRMPKDFPPFPQKLKFREPQREERICLVTTNFQTKSMSSMVSDTSCTFPSGDGIFWKHWIQTKIGQCGSPLVSTRDGFIVGIHSASNFTNTNNYFTSVPKNFMELLTNQEAQQWVSGWRLNADSVLWGGHKVFMVKPEEPFQPVKEATQL [D149I] | – | 0.0901 | – | – | 0.0868 | 0.0592 | – | –
15 | MGESLFKGPRDYNPISSSICHLTNESDGHTTSLYGIGFGPFIITNKHLFRRNNGTLVVQSLHGVFKVKDTTTLQQHLVDGRDMIIIRMPKDFPPFPQKLKFREPQREERICLVTTNFQTKSMSSMVSDTSCTFPSGDGIFWKHWIQTKDGQCGSPLVSTRDGKIVGIHSASNFTNTNNYFTSVPKNFMELLTNQEAQQWVSGWRLNADSVLWGGHKVFMVKPEEPFQPVKEATQL [F163K] | – | – | – | – | – | – | 0.133 | –
16 | MGESLFKGPRDYNPISSSICHLTNESDGHTTSLYGIGFGPFIITNKHLFRRNNGTLVVQSLHGVFKVKDTTTLQQHLVDGRDMIIIRMPKDFPPFPQKLKFREPQREERICLVTTNFQTKSMSSMVSDTSCTFPSGDGIFWKHWIQTKDGQCGSPLVSTRDGDIVGIHSASNFTNTNNYFTSVPKNFMELLTNQEAQQWVSGWRLNADSVLWGGHKVFMVKPEEPFQPVKEATQL [F163D] | – | – | 0.099 | – | – | – | – | 0.0549
17 | MGESLFKGPRDYNPISSSICHLTNESDGHTTSLYGIGFGPFIITNKHLFRRNNGTLVVQSLHGVFKVKDTTTLQQHLVDGRDMIIIRMPKDFPPFPQKLKFREPQREERICLVTTNFQTKSMSSMVSDTSCTFPSGDGIFWKHWIQTKDGQCGSPYVSTRDGFIVGIHSASNFTNTNNYFTSVPKNFMELLTNQEAQQWVSGWRLNADSVLWGGHKVFMVKPEEPFQPVKEATQL [L156Y] | – | 0.0522 | – | – | 0.0611 | – | 0.0536 | –
18 | MGESLFKGPRDYNPISSSICHLTNESDGHTTSLYGIGFGPFIITNKHLFRRNNGTLVVQSLHGVFKVKDTTTLQQHLVDGRDMIIIRMPKDFPPFPQKLKFREPQREERICLVTTNFQTKSMSSMVSDTSCTFPSGDGIFWKHWIQTKDGQCGSPLVSTRGGFIVGIHSASNFTNTNNYFTSVPKNFMELLTNQEAQQWVSGWRLNADSVLWGGHKVFMVKPEEPFQPVKEATQL [D161G] | 0.105 | 0.0778 | 0.104 | – | – | 0.0747 | 0.103 | –

— the supplement of paper PMC12217912
